Results on one compound are retold here after patent publication US3987028A, “Antibiotic 20,798 R.P” (Rhone-Poulenc S.A., priority 1968, dated 1976).

SMILES strings stand for the structures.

This test relates to Klebsiella pneumoniae resistant to antibiotic 9865 R.P. The settings on record: read-out: Minimal inhibitory concentration. Here is the method:
The bacteriostatic activity of 20,798 R.P. was determined by one of the dilution methods usually employed for this purpose. For each microorganism the minimum concentration of antibiotic, which under specified conditions inhibits all visible development of the microorganism in an appropriate nutrient medium, was determined. The results of the various determinations are collected in Table III below, in which the minimum bacteriostatic concentrations are expressed in micrograms of substance per cc. of test medium.

As for `COc1cccc2c1C(=O)c1c(O)c3c(c(O)c1C2=O)CC(O)(C(C)O)CC3OC1CC(N)C(O)C(C)O1` (stereo not shown) [20,798 R.P.], the MIC was above 200 µg/mL.
